This note sets out measurements from publication PMC5892938.

The list shows a part of the results. At the low end of the ranking the order means little.

For this test, the target named is GST-SBP-SLBP (stem-loop binding protein) (UniProt Q14493). The experiment in a line: targeted RNA Bind-n-Seq.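 Note: DESeq read counts versus GST-SBP nonspecific binding control pulldown.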 The settings on record: RBNS binding buffer: 25 mM Tris pH 7.5, 150 mM KCl, 3 mM MgCl2, 0.1% Tween, 0.5 mg/mL BSA, 1 mM DTT; 27 nM protein, 750 pM RNA pool; temperature not stated; high values mean tight binding.
With “GGUCACGUCUCAAUCAACUCAUCCGAGGGGGGGAAAACCCCUUUACCCUCACCAUCAACAGCUCGCAGUCAAG”, the binding signal (log2 fold change) came to 0.0648. The same measure for “GGUCACGUCUCAAUCAACUCUUCGUCAGGAGUUUCCUCCUGUAAUUUCAACAGCUCGCAGUCAAG”: 0.00832; for “GGUCACGUCUCAAUCAACUCAAUCCCCAGGGAAAGCCCUGGUAUUCUCAACAGCUCGCAGUCAAG”: 0.378. The same measure for “GGUCACGUCUCAAUCAACUCUACUUCAGGAGUUUUCUCCUGUAUUUUCAACAGCUCGCAGUCAAG”: 0.0968; for “GGUCACGUCUCAAUCAACUCAUCGUCCAGGGAAACCCCUGGUUAAUUCAACAGCUCGCAGUCAAG”: -0.0853.

Take “GGUCACGUCUCAAUCAACUCCUACGAGGGGGGGAAAACCCCUUUACCCUCUAUCUCAACAGCUCGCAGUCAAG”: the binding signal (log2 fold change) was -0.00918.

Regarding “GGUCACGUCUCAAUCAACUCAUUUUCCAGGGAAAACCCUGGUUAUCUCAACAGCUCGCAGUCAAG”, the binding signal (log2 fold change) is -0.177. With “GGUCACGUCUCAAUCAACUCAACUCCAGGAGUUUCCUCCUGCAUUCUCAACAGCUCGCAGUCAAG”, the binding signal (log2 fold change) was 0.167. On to “GGUCACGUCUCAAUCAACUCAUCCGCAGGAGUUUCCUCCUGGUAUUUCAACAGCUCGCAGUCAAG”, for which the binding signal (log2 fold change) was 0.483. For “GGUCACGUCUCAAUCAACUCAACUUCCAGGGAAAACCCUGGCUAUCUCAACAGCUCGCAGUCAAG”, the binding signal (log2 fold change) is 0.0148. On to “GGUCACGUCUCAAUCAACUCUUCUCCCAGGGAAAUCCCUGGUAUUUUCAACAGCUCGCAGUCAAG”, for which the binding signal (log2 fold change) is -0.378. With “GGUCACGUCUCAAUCAACUCUACAGAGGGGGGGAAAACCCCUUUACCCUCAUCAUCAACAGCUCGCAGUCAAG”, the binding signal (log2 fold change) was -0.245. Take “GGUCACGUCUCAAUCAACUCUUCGUCCAGGGAAAGCCCUGGCAAUUUCAACAGCUCGCAGUCAAG”: the binding signal (log2 fold change) was -0.252.

On to “GGUCACGUCUCAAUCAACUCAUCGCCAGGAGUUUCCUCCUGCUAUUUCAACAGCUCGCAGUCAAG”, for which the binding signal (log2 fold change) was determined as 0.0126. As to “GGUCACGUCUCAAUCAACUCAUUUCCAGGAGUUUACUCCUGUUUAUUCAACAGCUCGCAGUCAAG”, the binding signal (log2 fold change) came out at 0.0969. As for “GGUCACGUCUCAAUCAACUCUACUCCCAGGGAAACCCCUGGCUAACUCAACAGCUCGCAGUCAAG”, the figure is 0.0226. As for “GGUCACGUCUCAAUCAACUCAAUUCCAGGAGUUUCCUCCUGCUUAUUCAACAGCUCGCAGUCAAG”, the figure is 0.0231. The same measure for “GGUCACGUCUCAAUCAACUCAAUCCCCAGGGAAAGCCCUGGUAUACUCAACAGCUCGCAGUCAAG”: -0.061. Consider “GGUCACGUCUCAAUCAACUCUUCUCCCAGGGAAAACCCUGGUAAUUUCAACAGCUCGCAGUCAAG”, for which the binding signal (log2 fold change) was -0.0582. The same measure for “GGUCACGUCUCAAUCAACUCAAGUCCAGGAGUUUACUCCUGUAAUUUCAACAGCUCGCAGUCAAG”: 0.0544; for “GGUCACGUCUCAAUCAACUCUUUCUCCAGGGAAAUCCCUGGUAAUCUCAACAGCUCGCAGUCAAG”: -0.0514.
